According to the supplement of paper PMC9446081:
Among all 39,000 compounds or so, about 220 (0.56%) showed activity. This is one part of the list.

What follows are compounds tested on Escherichia coli K-12 BW25113 (assay: relative growth (OD600 normalised to plate interquartile mean) (fraction); higher = less growth inhibition, active = 0.2 or less). Details: 50 µM; LB; incubation time: overnight (16-24 h).
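Also: static incubation at 37 °C against the wild-type strain, values averaged over two biological replicates.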

Structure (SMILES)	relative growth
C[C@@H]1CCCCO[C@@H](CN(C)Cc2ccc(C(=O)O)cc2)[C@H](C)CN([C@H](C)CO)C(=O)c2cc(NS(=O)(=O)c3ccc(Cl)cc3)ccc2O1	inactive: 1.02
O=C(C[C@H]1C[C@@H]2c3cc(NC(=O)c4ccc5c(c4)OCO5)ccc3O[C@@H]2[C@@H](CO)O1)NCc1ccccn1	inactive: 0.953
C[C@@H]1CN([C@H](C)CO)C(=O)Cc2cc(NC(=O)Nc3ccccc3)ccc2O[C@H]1CN(C)Cc1ccc(C(F)(F)F)cc1	inactive: 1.08
C[C@@H]1CN([C@H](C)CO)C(=O)Cc2cc(NS(C)(=O)=O)ccc2O[C@@H]1CN(C)Cc1ccc(C(=O)Nc2ccccc2N)cc1	inactive: 1.02
C[C@@H]1CN([C@@H](C)CO)S(=O)(=O)c2ccc(C#Cc3ccccc3)cc2O[C@H]1CN(C)C(=O)CN(C)C	inactive: 1
O=C(C[C@@H]1CC[C@H]2[C@@H](COC[C@H](O)CN2C(=O)Nc2cccc(F)c2)O1)NCc1ccccc1Cl	inactive: 0.948
COc1ccccc1S(=O)(=O)N[C@H]1CC[C@@H](CCNC(=O)C2CC2)O[C@@H]1CO	inactive: 0.993
C[C@@H]1CCCCO[C@@H](CN(C)C(=O)Nc2ccc(C(F)(F)F)cc2)[C@@H](C)CN([C@H](C)CO)C(=O)c2cc(NC(=O)CCC(F)(F)F)ccc2O1	inactive: 1.04
CN1C(=O)c2cc(NC(=O)c3cccs3)ccc2OC[C@H]2O[C@H](CC(=O)NCCN3CCCCC3)CC[C@@H]21	inactive: 0.989
CN1CCC2(CC1)CN(C(=O)CNC(N)=O)CCCN2C	inactive: 0.972
C[C@H](CO)N1C[C@H](C)[C@@H](CN(C)C(=O)Nc2cccc(Cl)c2Cl)OCc2ccccc2-c2c(n(C)c3ccccc23)C1=O	inactive: 1.04
C[C@@H]1CN([C@@H](C)CO)C(=O)c2cc(NC(=O)Nc3ccc(C(F)(F)F)cc3)ccc2O[C@@H]1CN(C)Cc1ccccc1	inactive: 0.966
COc1ccc2c3c(n(c2c1)C)[C@H](CO)N(Cc1cc(cc(c1)OC)OC)C[C@]13CN(C1)C(=O)CN1CCOCC1	inactive: 1.01
Cc1onc(NS(=O)(=O)c2ccccc2-c2ccc(-c3ncco3)cc2CN(C)C(=O)CC(C)(C)C)c1C	inactive: 1
COc1ccc(CN(C)C[C@H]2OCCCC[C@@H](C)Oc3ccc(NC(=O)Nc4ccc(F)cc4)cc3C(=O)N([C@H](C)CO)C[C@@H]2C)cc1	inactive: 0.97
CC(=O)OCC=C(C)CCC=C(C)CCC=C(C)CCC=C(C)CCC=C(C)CCC=C(C)CCC=C(C)CCC=C(C)CCC=C(C)C	inactive: 1.11
